Measurements from the RNAGym collection of RNA variant scans (doi:10.1101/gad.245936.114).
This sample is rich in variants without activity.

B1: tRNA (parent)
chain: CUCUCGGUAGCCAAGUUGGUUUAAGGCGCAAGACUUUAAUUUAUCACUACGAAAUCUUGAGAUCGGGCGUUCGACUCGCCCCCGGGAGAUUUUUUCCUCGAGCAA

Variants of: B1
Assay: nonsense suppression (GFP-seq) (ratio to wild type); higher = more function; SUP4oc tRNA, yeast GFP reporter sort-seq
Outline: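 To measure nonsense suppression, tRNA variants from a library carrying ~3% random mutations were integrated into the yeast genome alongside RFP and a GFP ochre reporter under galactose control. Growth took place in raffinose/galactose medium supplemented with 80 mg/L adenine, followed by sorting into GFP/RFP bins and Illumina sequencing of each bin (phred ≥30). For each variant with ≥100 reads and ≥30 cells, the bin median GFP/RFP values were weighted by its estimated cell share per bin and referenced to the unmutated parent tRNA.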

Variant | nonsense suppression
U8A A14G U63G | ≤ 0.026
U8A A14U G65A G78U A87C | ≤ 0.026
U8A A23G G65C | ≤ 0.026
U8A A24C C79G | ≤ 0.026
U8A A24G | ≤ 0.026
U8A A24G G69C C81A | ≤ 0.026
U8A A30C | ≤ 0.026
U8A A30U U35G | ≤ 0.026
U8A A31C A33G U63G C83A | ≤ 0.026
U8A A31U U55A | ≤ 0.026
U8A A33G | ≤ 0.026
U8A A33U A54C A62C | ≤ 0.026
U8A A54G A74C C75G | ≤ 0.026
U8A A54U C79A | ≤ 0.026
U8A A60G G66U | ≤ 0.026
U8A A60U G78A | ≤ 0.026
U8A A62C C75A | ≤ 0.026
U8A A74G | ≤ 0.026
U8A C11G A24G C56U | ≤ 0.026
U8A C11U G15C C34A | ≤ 0.026
U8A C11U G78C | ≤ 0.026
U8A C11U U21C | ≤ 0.026
U8A C12A | ≤ 0.026
U8A C12U A33G | ≤ 0.026

Variant | nonsense suppression
U8A C27A A62C | ≤ 0.026
U8A C27G G65C A74G | ≤ 0.026
U8A C27G G88A A89C | ≤ 0.026
U8A C27G U63A | ≤ 0.026
U8A C29A C83U | ≤ 0.026
U8A C29U C72A | ≤ 0.026
U8A C34A G85A | ≤ 0.026
U8A C34G C75G | ≤ 0.026
U8A C34U A62U G84A | ≤ 0.026
U8A C68A A74C | ≤ 0.026
U8A C79G | ≤ 0.026
U8A C81G A87U | ≤ 0.026
U8A C82A | ≤ 0.026
U8A C83G | ≤ 0.026
U8A G10C A23C | ≤ 0.026
U8A G10U | ≤ 0.026
U8A G15A | ≤ 0.026
U8A G15U U55C | ≤ 0.026
U8A G18C | ≤ 0.026
U8A G18C A33G U76G | ≤ 0.026
U8A G18C C27G | ≤ 0.026
U8A G19A C29A U55C A62U G69A C79U A87C | ≤ 0.026
U8A G19C A60G | ≤ 0.026
U8A G19U C29G A30C A31G G84A | ≤ 0.026

Variant | nonsense suppression
U8A G19U C29G C34U | ≤ 0.026
U8A G19U C81G | ≤ 0.026
U8A G19U U20A G78A | ≤ 0.026
U8A G25C | ≤ 0.026
U8A G25C C29A C72U G88U | ≤ 0.026
U8A G25C G84A G88A | ≤ 0.026
U8A G25C U70A | ≤ 0.026
U8A G26U C72U | ≤ 0.026
U8A G28A U35G | ≤ 0.026
U8A G32A A89C | ≤ 0.026
U8A G32C | ≤ 0.026
U8A G32C G59A U71A | ≤ 0.026
U8A G59A G61A | ≤ 0.026
U8A G59A G61U G88A | ≤ 0.026
U8A G59U C81G | ≤ 0.026
U8A G61A C72G C81G | ≤ 0.026
U8A G66A | ≤ 0.026
U8A G66C | ≤ 0.026
U8A G66C G73C C79A A89G | ≤ 0.026
U8A G66U | ≤ 0.026
U8A G69A G73A C80A | ≤ 0.026
U8A G73C | ≤ 0.026
U8A G84U | ≤ 0.026
U8A U16C U21C C72G | ≤ 0.026

Variant | nonsense suppression
U8A U16G | 0.0647
U8A U17A G19A G28U C56A G59U | ≤ 0.026
U8A U20C C81G | ≤ 0.026
U8A U20C C81U | ≤ 0.026
U8A U20G A62C C72A C79A | ≤ 0.026
U8A U21A G32C | ≤ 0.026
U8A U21A U76C | ≤ 0.026
U8A U22C U57G U63C C83A | ≤ 0.026
U8A U57C | ≤ 0.026
U8A U57C A74C G78U G85U A87U | ≤ 0.026
U8A U57C G85U | ≤ 0.026
U8A U57G A89U | ≤ 0.026
U8A U57G C82A | ≤ 0.026
U8A U57G G59A C75A G86C | ≤ 0.026
U8A U58A U70G | ≤ 0.026
U8A U58G | ≤ 0.026
U8A U63C | ≤ 0.026
U8A U76A | ≤ 0.026
U8A U76G C77A G88A | ≤ 0.026
U8C | ≤ 0.026
U8C A9C C27A A89C | ≤ 0.026
U8C A9C G25C G28A A31U C68U U76C | ≤ 0.026
U8C A9C U17G G18A | ≤ 0.026
U8C A9U | ≤ 0.026

Variant | nonsense suppression
U8C A9U A13U | ≤ 0.026
U8C A9U C34G C68U | ≤ 0.026
U8C A9U C83A | ≤ 0.026
U8C A9U G85A G88A | ≤ 0.026
U8C A13C | ≤ 0.026
U8C A13G | ≤ 0.026
U8C A13G A14C G26U | ≤ 0.026
U8C A14G G19U G26A U55A U70A | ≤ 0.026
U8C A23C G32C A62G | ≤ 0.026
U8C A23C G73C | ≤ 0.026
U8C A23U A54C | ≤ 0.026
U8C A23U C34U U63C G65C | ≤ 0.026
U8C A24G | ≤ 0.026
U8C A24U U71C | ≤ 0.026
U8C A30C | ≤ 0.026
U8C A30C A89C | ≤ 0.026
U8C A31C A54U G85A G88A | ≤ 0.026
U8C A31C G61U C75A | ≤ 0.026
U8C A31G | 0.0327
U8C A33G G59U C68A | ≤ 0.026
U8C A54C | 0.0833
U8C A54U G85C G88C | ≤ 0.026
U8C A60C C79U | ≤ 0.026
U8C A60U G73A | ≤ 0.026

Variant | nonsense suppression
U8C A62G G88C | ≤ 0.026
U8C A74U G84A | ≤ 0.026
U8C A89C | ≤ 0.026
U8C C11A C81G | ≤ 0.026
U8C C11A U21A A30G U70A G73A C81G A89G | ≤ 0.026
U8C C11A U21A A30G U70A G73A C81G A89U | ≤ 0.026
U8C C12A G19U | ≤ 0.026
U8C C27A U57G U76C | ≤ 0.026
U8C C27U | ≤ 0.026
U8C C29A U57C G73C | ≤ 0.026
U8C C29U | ≤ 0.026
U8C C29U G66U | ≤ 0.026
U8C C34G U76C G84U | ≤ 0.026
U8C C34U U57A G66U G73C | ≤ 0.026
U8C C64A C75A | ≤ 0.026
U8C C75G | ≤ 0.026
U8C C79G | ≤ 0.026
U8C C80G | ≤ 0.026
U8C C80U C82G | ≤ 0.026
U8C C83A | ≤ 0.026
U8C G15A G26U | ≤ 0.026
U8C G15C U70C C79U A87G | ≤ 0.026
U8C G15U A23U A62G C64A G65C | ≤ 0.026
U8C G15U G19U A24G | ≤ 0.026

Variant | nonsense suppression
U8C G18A U35G | ≤ 0.026
U8C G18C A30C C80U | ≤ 0.026
U8C G18C C27U U55C G65A | ≤ 0.026
U8C G18U G85A | ≤ 0.026
U8C G19C U57G G65A U71G | ≤ 0.026
U8C G19U U20G G67C G88U | ≤ 0.026
U8C G25C U57A U70C U76C | ≤ 0.026
U8C G26A G65C | ≤ 0.026
U8C G26C U57C G69C | ≤ 0.026
U8C G26U C34U G88C | ≤ 0.026
U8C G32U G59U | ≤ 0.026
U8C G32U G84C | ≤ 0.026
U8C G61C G73C | ≤ 0.026
U8C G67A A74C | ≤ 0.026
U8C G67A A87C | ≤ 0.026
U8C G67C | ≤ 0.026
U8C G78A C79U | ≤ 0.026
U8C G84A A89G | ≤ 0.026
U8C G84U | ≤ 0.026
U8C U16C A23C U71G G73A | ≤ 0.026
U8C U17C C72U G84U | ≤ 0.026
U8C U17C G66A C75A | ≤ 0.026
U8C U17C G66C | ≤ 0.026
